We go through 29 compounds from patent US20260200947A1, “FUSED CYCLIC COMPOUNDS AND USE THEREOF” (Jacobio Pharmaceuticals Co., Ltd., priority 2022, published 2026).

Each structure is given as a SMILES string. Where two headings read alike, the source gives them in different places.

Assay [1] deals with SW620 cells (K-Ras G12V). The assay can be described thus: Phospho-ERK1/2(THR202/TYR204) HTRF assay, SW620. Format: cell-based. The note with it: Homo sapiens, SW-620, 2 hours incubation, read-out: pERK, IC50, SW620.
Assay [2] deals with AGS cells (K-Ras G12D).
Assay [3] has as its system AsPC-1 cells (K-Ras G12D).
Assay [4] concerns SW620 cells (K-Ras G12V).
The target of assay [5] is GppNp-KRAS G12D (Homo sapiens, UniProt P01116, G12D). The assay can be described thus: biochemical.
For assay [6], the target named is GppNp-KRAS G12V (Homo sapiens, UniProt P01116, G12V). The assay can be described thus: biochemical.

Turning to `C#Cc1c(F)ccc2cc(N)cc(-c3nc4c5c(nc(OC[C@@]67CCCN6C[C@H](F)C7)nc5c3F)N3CCOCC3CC4=C)c12` (some centres unmarked) [Compound 22], the concentration for half-maximal inhibition (IC50) was 30.8 nM in assay [1], 142 nM in assay [2], 470 nM in assay [3] and 59.5 nM in assay [4].
As for `C#Cc1c(F)ccc2cc(N)cc(-c3nc4c5c(nc(OC[C@@]67CCCN6C[C@H](F)C7)nc5c3F)N3CC(F)(F)CCC3N4C)c12` (some centres unmarked) [Compound 53], the IC50 in assay [1] is 46.9 nM; in assay [5] it was 989 nM; in assay [6] it was more than 1000 nM.
For `C#Cc1c(F)ccc2cc(O)cc(-c3nc4c5c(nc(OCC67CC(=C)CN6CC(=C)C7)nc5c3F)N3CCCOC[C@H]3CO4)c12` [Compound 2], the IC50 in assay [1] was 12.1 nM; in assay [2] it was 13.5 nM; in assay [3], 386 nM; in assay [4], 44.1 nM.
The like results for `C#Cc1c(F)ccc2cc(N)cc(-c3nc4c5c(nc(OC[C@@]67CCCN6C[C@H](F)C7)nc5c3F)N3CCCOC(C)[C@H]3N4C)c12` (some centres unmarked) [Compound 42] were, in that order, 2.09 nM, 4.71 nM, 39.3 nM and 2.79 nM.
Regarding `C#Cc1c(F)ccc2cc(N)cc(-c3cc4c5c(nc(OC[C@@]67CCCN6C[C@H](F)C7)nc5c3F)N3[C@@H](C)CCOC[C@H]3N4C)c12` [Compound 44], the IC50 in assay [1] was 51.4 nM; in assay [2], 178 nM; in assay [3] it was 423 nM; in assay [4], 38.6 nM; in assay [5], 95.6 nM; in assay [6] it was 208 nM.
Take `C#Cc1c(F)ccc2cc(N)cc(-c3nc4c5c(nc(OC[C@@]67CCCN6C[C@H](F)C7)nc5c3F)N3CC5(CC5)COCC3N4C)c12` (some centres unmarked) [Compound 97]: the IC50 came to 65.4 nM in assay [1], 112 nM in assay [2], 338 nM in assay [3] and 82.9 nM in assay [4].
For `C#Cc1c(F)ccc2cc(O)cc(-c3nc4c5c(nc(OC[C@@]67CCCN6C[C@H](F)C7)nc5c3F)N3CCC=CC[C@H]3CO4)c12` [Compound 63], the IC50 in assay [1] came out at 0.571 nM; in assay [2] it was 0.526 nM; in assay [3], 6.66 nM; in assay [4], 0.655 nM; in assay [5] it was 7.27 nM; in assay [6], 10.4 nM.
With `C#Cc1c(F)ccc2cc(N)cc(-c3nc4c5c(nc(OC[C@@]67CCCN6C[C@H](F)C7)nc5c3F)N3CCC=CC[C@H]3CO4)c12` [Compound 37], the IC50 stood at 1.84 nM in assay [1]; 4.79 nM in assay [2]; 27.1 nM in assay [3]; 5.07 nM in assay [4]; 42 nM in assay [5]; 62.1 nM in assay [6].
As to `C#Cc1c(F)ccc2cc(N)cc(-c3nc4c5c(nc(OC[C@@]67CCCN6C[C@H](F)C7)nc5c3F)N3CC(F)COC[C@H]3CO4)c12` (some centres unmarked) [Compound 15], the IC50 in assay [1] came out at 29.4 nM.
Consider `C#Cc1c(F)ccc2cc(N)cc(-c3c(Cl)c4c5c(nc(OC[C@@]67CCCN6C[C@H](F)C7)nc5c3F)N3CCCOC[C@H]3CO4)c12` [Compound 11], for which the IC50 in assay [1] stood at 63.6 nM; in assay [2], 327 nM; in assay [3], 583 nM; in assay [4] it was 93.4 nM; in assay [5], 172 nM; in assay [6], 366 nM.
Take `C#Cc1c(F)ccc2cc(N)cc(-c3nc4c5c(nc(OCC67CC(=C)CN6C[C@H](F)C7)nc5c3F)N3CCCOC[C@H]3CO4)c12` (some centres unmarked) [Compound 13]: the IC50 in assay [1] was found to be 2.27 nM; in assay [2] it was 19.6 nM; in assay [3], 47.4 nM; in assay [4], 7.48 nM; in assay [5], 90.6 nM; in assay [6], 187 nM.
On to `C#Cc1c(F)ccc2cc(N)cc(-c3nc4c5c(nc(OCC67CCCN6CC(=CF)C7)nc5c3F)N3CCCOC[C@H]3CO4)c12` (some centres unmarked) [Compound 5], for which the IC50 stood at 4.15 nM in assay [1], 9.12 nM in assay [2], 61.6 nM in assay [3] and 5.78 nM in assay [4].
`C#Cc1c(F)ccc2cc(O)cc(-c3nc4c5c(nc(OC[C@@]67CCCN6C[C@H](F)C7)nc5c3F)N3CCCOC[C@H]3N4C)c12` [Compound 50]: in assay [1], the IC50 amounted to 0.678 nM.
On to `C#Cc1c(F)c(F)cc2cc(N)cc(-c3nc4c5c(nc(OC[C@@]67CCCN6CC(=C)C7)nc5c3F)N3CCCOC[C@H]3CO4)c12` [Compound 34], for which the IC50 in assay [1] was found to be 2 nM; in assay [5], 50 nM; in assay [6] it was 68.1 nM.
For `C#Cc1c(F)ccc2cc(N)cc(-c3nc4c5c(nc(OC[C@@]67CCCN6C[C@H](F)C7)nc5c3F)N3CCCOCC3N4C)c12` (some centres unmarked) [Compound 10], the IC50 worked out at 3.54 nM in assay [1]; 6.93 nM in assay [2]; 44.6 nM in assay [3]; 2.6 nM in assay [4]; 57.1 nM in assay [5]; 54.9 nM in assay [6].
On to `C#Cc1c(F)ccc2cc(N)cc(-c3nc4c5c(nc(OC[C@@]67CCCN6C[C@H](F)C7)nc5c3F)N3CC(F)(F)COC[C@H]3CO4)c12` [Compound 19], for which the half-inhibitory concentration (IC50) in assay [1] amounted to 3.85 nM; in assay [2], 26.3 nM; in assay [3], 294 nM; in assay [4], 10.5 nM.
Consider `C#Cc1c(F)ccc2cc(N)cc(-c3nc4c5c(nc(OC[C@@]67CCCN6C[C@H](F)C7)nc5c3F)N3CCCCOC3N4C)c12` (some centres unmarked) [Compound 70], for which the half-inhibitory concentration (IC50) in assay [1] amounted to 50.9 nM; in assay [2] it was 23.3 nM; in assay [3] it was 353 nM; in assay [5], 426 nM.
With `C#Cc1c(F)ccc2cc(N)cc(-c3nc4c5c(nc(OCC67CCCN6CC6(C7)CC6(F)F)nc5c3F)N3CCCOC[C@H]3CO4)c12` (some centres unmarked) [Compound 25], the IC50 in assay [1] came to 32.5 nM; in assay [5], 306 nM.
As to `C#Cc1c(F)ccc2cc(N)cc(-c3nc4c5c(nc(OC[C@@]67CCCN6C[C@H](F)C7)nc5c3F)N3CCC=CC3N4C)c12` (some centres unmarked) [Compound 71], the concentration for half-maximal inhibition (IC50) in assay [1] is 22.7 nM; in assay [2], 41.2 nM; in assay [4], 40.9 nM; in assay [6], more than 1000 nM.
In the case of `C#Cc1c(F)ccc2cc(N)cc(-c3nc4c5c(nc(OC[C@@]67CCCN6C[C@H](F)C7)nc5c3F)N3[C@@H](CC)CCOC[C@H]3CO4)c12` [Compound 65], the IC50 in assay [1] was 6.11 nM; in assay [3], 57.7 nM; in assay [4], 13.6 nM; in assay [5] it was 230 nM; in assay [6], 270 nM.
Turning to `C#Cc1c(F)ccc2cc(O)cc(-c3nc4c5c(nc(OC[C@@]67CCCN6C[C@H](F)C7)nc5c3F)N3CCCOCC3N4C)c12` (some centres unmarked) [Compound 9], the IC50 in assay [1] stood at 0.724 nM; in assay [2], 2.09 nM; in assay [3] it was 12.5 nM; in assay [4], 0.658 nM.
Taken in the same sequence, the figures for `C#Cc1c(F)ccc2cc(N)cc(-c3nc4c5c(nc(OC[C@@]67CCCN6C[C@H](F)C7)nc5c3F)N3CC(F)(F)COCC3N4C)c12` (some centres unmarked) [Compound 55] were 3.5 nM, 7.32 nM, 56.1 nM and 2.67 nM.
On to `C#Cc1c(F)ccc2cc(N)cc(-c3nc4c5c(nc(OC[C@@]67CCCN6CC(=C)C7)nc5c3F)N3CCCOC[C@H]3CO4)c12` [Compound 7], for which, in assay [1], the concentration for half-maximal inhibition (IC50) came to 1.55 nM.
For `C#Cc1c(F)ccc2cc(N)cc(-c3nc4c5c(nc(OC[C@@]67CCCN6C[C@H](F)C7)nc5c3F)N3CCCOC[C@H]3C4=C)c12` [Compound 21], the figures for the IC50 in assay [1], in assay [5] and in assay [6] were 4.04 nM, 82.4 nM and 103 nM, respectively.
Turning to `C#Cc1c(F)c(F)cc2cc(N)cc(-c3nc4c5c(nc(OC[C@@]67CCCN6C[C@H](F)C7)nc5c3F)N3CCCOC[C@H]3N4C)c12` [Compound 45], the half-inhibitory concentration (IC50) in assay [1] was 3.59 nM.
In the case of `C#Cc1c(F)c(F)cc2cc(N)cc(-c3nc4c5c(nc(OC[C@@]67CCCN6C[C@H](F)C7)nc5c3F)N3CCCOC[C@H]3CO4)c12` [Compound 8], the IC50 was 2.23 nM in assay [1]; 79.4 nM in assay [3]; 5.84 nM in assay [4]; 66.4 nM in assay [5]; 200 nM in assay [6].
Regarding `C#Cc1c(F)ccc2cc(N)cc(-c3nc4c5c(nc(OCC67C[C@@H](F)CN6CC6(CC6)C7)nc5c3F)N3CCCOC[C@H]3CO4)c12` (some centres unmarked) [Compound 33], the figures for the IC50 in assay [1], in assay [5] and in assay [6] were 2.83 nM, 99.9 nM and 223 nM, respectively.
As for `C#Cc1c(F)ccc2cc(N)cc(-c3nc4c5c(nc(OCC67CC(=C)CN6CC(=C)C7)nc5c3F)N3CCCOC[C@H]3CO4)c12` [Compound 3], the concentration for half-maximal inhibition (IC50) was determined as 1.39 nM in assay [1]; 47.2 nM in assay [2]; 180 nM in assay [3]; 25.5 nM in assay [4]; 415 nM in assay [5]; 660 nM in assay [6].
In the case of `C#Cc1c(F)ccc2cc(N)cc(-c3nc4c5c(nc(OC[C@@]67CCCN6C[C@H](F)C7)nc5c3F)N3CC(C)COCC3N4C)c12` (some centres unmarked) [Compound 46], the IC50 is 8.14 nM in assay [1]; 77.6 nM in assay [2]; more than 10000 nM in assay [3]; 13.4 nM in assay [4]; 69.8 nM in assay [5]; 107 nM in assay [6].
